Experimental data reported in the RNAGym collection of RNA variant scans (doi:10.7554/elife.90254).
The source gives no read counts; variants with many changes may rest on few reads.

B1: LINE1-full (parent)
chain: UACGUAGGUGGUUUUCCCCUGAUAGUGCUAAGGGGGCCUGGAAGUUUGGACUGGGCAGAGCUCAACACAGCGUGGCAAAGUGGCUGUGGCUAGACUGCCUCUCUGGAUUCCUCGUCACUCAGCAGGGCAUCUCUGAGAGAAAUGCC

Variants of: B1
Test: self-cleavage, relative activity (ratio to wild type); higher = more cleavage; in vitro, sequencing; the parent is a self-cleaving ribozyme
A64G A77G A140U gave a self-cleavage of 0.23.
U62C A77G A136U showed a self-cleavage of 0.14.
U62A A64U U134A showed a self-cleavage of 0.04.
In the case of U62C C63U A64U U132A, the self-cleavage is reported as 0.01.
For U62C U108C U134C, the self-cleavage was 0.1.
U62C C103G G125C gave a self-cleavage of 0.06.
A64U A79U U104A showed a self-cleavage of 0.54.
Work on U62C A65U U87A A140G yielded a self-cleavage of 0.08.
U62C U91A U100A A140G gave a self-cleavage of 0.
Variant A65G U85C G93A A94U has a self-cleavage of 0.05.
Variant A64G A129G G137A has a self-cleavage of 0.26.
U62C A69G U73A A121G U130C showed a self-cleavage of 0.
Variant A64G U104C U134A has a self-cleavage of 0.
For A64G A77G A121U A141G, the self-cleavage was 0.39.
Variant A59U U104A U109C A136G has a self-cleavage of 0.71.
For C61U U104C U112C C145U, the self-cleavage was 0.01.
Variant A65G U73G A121U has a self-cleavage of 0.06.
With U62C A77G U119C A129G the self-cleavage was 0.
Variant A64U C68U U102C A117G U134A has a self-cleavage of 0.09.
With A65U A77G U112C the self-cleavage was 0.26.
Work on C63A A117C A124U yielded a self-cleavage of 0.11.
In the case of A65G U96A C110A, the self-cleavage is reported as 0.01.
With C63U C71U A78G the self-cleavage was 0.07.
In the case of C63A U102C A129G, the self-cleavage is reported as 0.06.
In the case of A64G U104C A141G, the self-cleavage is reported as 0.45.
U62C A92G C98U gave a self-cleavage of 0.06.
G60U A67U A140G gave a self-cleavage of 0.04.
A59U U100C U102C gave a self-cleavage of 1.36.
Work on A65G A77G A136U yielded a self-cleavage of 0.
Variant A65G U87A A141G has a self-cleavage of 0.03.
In the case of A65G U115A C133U, the self-cleavage is reported as 0.04.
For C63U U73A U119C A140G, the self-cleavage was 0.31.
In the case of C63U A67U A142G, the self-cleavage is reported as 0.05.
U62C U102C A107G G114A gave a self-cleavage of 0.05.
In the case of U62C A65G U85A A138G, the self-cleavage is reported as 0.
A65G U73A U130C showed a self-cleavage of 0.12.
U62C A121G A141G gave a self-cleavage of 0.05.
In the case of A65G A77U A94G G122A, the self-cleavage is reported as 0.08.
Variant A59U U104A A140G has a self-cleavage of 0.09.
U62A C99U A107G U112C gave a self-cleavage of 0.05.
U62C G114A U134G A138U gave a self-cleavage of 0.06.
For A64G A65U G74A A77G A121G, the self-cleavage was 0.
Work on C63U U73C C98U yielded a self-cleavage of 0.17.
With A65G A124G U132C the self-cleavage was 0.03.
Work on A64G A94U U132G yielded a self-cleavage of 0.
U62C A77G U119C A138U U143C showed a self-cleavage of 0.
For A64U U134C A142G, the self-cleavage was 0.79.
For A64U U85C A140U, the self-cleavage was 0.05.
In the case of C61U A94G U96A U134A A136G, the self-cleavage is reported as 0.01.
In the case of A64G A69U U96A U132A A141G, the self-cleavage is reported as 0.02.
A64U A77U U100C U132A A140G A142U gave a self-cleavage of 0.62.
Work on A65G U112C A136G yielded a self-cleavage of 0.17.
For U62C U100A U102A, the self-cleavage was 0.03.
Work on U62C A67G U85C U96A yielded a self-cleavage of 0.
In the case of A64U U130A A140G, the self-cleavage is reported as 0.42.
U62A U87A U115C A117U showed a self-cleavage of 0.01.
A64G C101A U132C gave a self-cleavage of 0.28.
In the case of A64G U115C G122U G135A, the self-cleavage is reported as 0.24.
A64U U102C U115C A140U gave a self-cleavage of 0.08.
U62C U73A U100A A141G gave a self-cleavage of 0.02.
U62G U87A C95U A140G showed a self-cleavage of 0.06.
For A64G U96C U104C, the self-cleavage was 0.
For A64U A69G U115A, the self-cleavage was 0.29.
With A64G A117C A142G the self-cleavage was 0.46.
For U62C G89C U112C, the self-cleavage was 0.01.
With A64U A107G A129G U132C the self-cleavage was 0.85.
U62C G97A A140G gave a self-cleavage of 0.04.
For A65G U108A U132A, the self-cleavage was 0.1.
A65G U96A A107G A141G gave a self-cleavage of 0.13.
U62C A78G U81C A142G gave a self-cleavage of 0.
In the case of U62C U85C G93A U100C, the self-cleavage is reported as 0.
In the case of A65G U112A A138G, the self-cleavage is reported as 0.09.
Work on A59U U73C U132C yielded a self-cleavage of 1.55.
In the case of A65G C90U U100C, the self-cleavage is reported as 0.09.
For U62C C99A U102G, the self-cleavage was 0.1.
In the case of A65G C103U U130C, the self-cleavage is reported as 0.04.
U62C U87C U130C showed a self-cleavage of 0.47.
Work on A59U A79G U96A A124U yielded a self-cleavage of 0.08.
A65G A92U U134C showed a self-cleavage of 0.07.
A64U U132C G139U gave a self-cleavage of 0.28.
C61U A64G A117U gave a self-cleavage of 0.02.
A59U U115C U134C showed a self-cleavage of 0.73.
For A64G G114A A121G, the self-cleavage was 0.27.
Variant A65G U115A U143G has a self-cleavage of 0.1.
